Experimental data: PubChem BioAssay (Tox21)
Inconclusive means that the source gave no clear call. Such entries were picked first, then a sample of the others. For part of these data: Potencies of inconclusive entries are doubtful fits and often do not repeat. Calls of active or inactive are those of the source. Unless noted, calls come from the whole dose curve; as a rule, active = well fitted curve in the direction sought with a large enough effect in the repeat runs; inconclusive = weak or mixed curves; inactive = no such curve, though single readings can be large; an effect the other way counts as inactive or inconclusive.

What was measured:
[1] = molecular target: Peroxisome proliferator-activated receptor gamma (Homo sapiens) (UniProt P37231); test: qHTS assay to identify small molecule antagonists of the peroxisome proliferator-activated receptor gamma (PPARg) signaling pathway (AID 743191; calls by dose curve; note: nearly all actives have a fitted effect of over 30% in size; note: potency is the fitted concentration of half-maximal effect; for ratio activity, negative = inhibition: % is set by controls: 0 for no effect and ±100 for the full control effect); settings: HEK293H PPARg-UAS-bla, beta-lactamase ratio, antagonist, 17 h; ratio activity, negative = inhibition: at 62.6 µM (top of the series) unless noted
Summary of the method: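 GeneBLAzer PPARg UAS-bla HEK293H cells carrying a UAS-driven beta-lactamase reporter were plated at 3000 cells/well, preincubated 5 h at 37C, then given compound for 17 h at 37C; LiveBLAzer B/G FRET substrate was read after 1 h at room temperature.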

[2] = qHTS assay to identify small molecule antagonists of the peroxisome proliferator-activated receptor gamma (PPARg) signaling pathway - cell viability counter screen (AID 743194); settings: PPARg-bla HEK293H viability, CellTiter-Glo luminescence, 17 h, co-treated with 50 nM rosiglitazone; activity change, negative = cytotoxicity: at 62.6 µM (top of the series) unless noted; note: nearly all actives have a fitted effect of over 55% in size; note: potency is the fitted concentration of half-maximal effect
Summary of the method: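 PPARg-UAS-bla HEK293H cells were plated, rested 5 h at 37 C, then treated with compounds plus rosiglitazone (50 nM final) for 17 h at 37 C; viability was then read by CellTiter-Glo luminescence after 30 min at room temperature.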

[3] = qHTS assay for small molecule agonists of the antioxidant response element (ARE) signaling pathway (AID 743202; active = well fitted activation curve with a large enough effect in the signal ratio in the repeat runs, not every such curve was filed as active; inconclusive = weak or mixed curves, or effect the other way; inactive = no such curve, though single readings can be large or run the other way; the % refers to the signal ratio; note: potency is the fitted concentration of half-maximal effect); settings: HepG2 ARE-bla reporter, beta-lactamase FRET, 16 h; activation: at 73.3 µM (top of the series) unless noted
Summary of the method: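 Read-out: LiveBLAzer B/G FRET substrate fluorescence after 2 h at room temperature, following 16 h compound treatment at 37 C of HepG2 cells carrying an ARE-driven beta-lactamase reporter.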

[4] = molecular target: Bile acid receptor (Homo sapiens) (UniProt Q96RI1); test: qHTS assay to identify small molecule antagonists of the farnesoid-X-receptor (FXR) signaling pathway (AID 743217; active = well fitted inhibition curve with a large enough effect in the signal ratio in the repeat runs, not every such curve was filed as active; inconclusive = weak or mixed curves, or effect the other way; inactive = no such curve, though single readings can be large or run the other way; the % refers to the signal ratio; note: potency is the fitted concentration of half-maximal effect; for activity change, negative = inhibition: % is set by controls: 0 for no effect and ±100 for the full control effect); settings: HEK293T FXR-UAS-bla, beta-lactamase ratio, CDCA-stimulated, 16 h; activity change, negative = inhibition: at 62.6 µM (top of the series) unless noted
Summary of the method: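 Antagonist mode against 50 uM (final) chenodeoxycholic acid stimulation in FXR-bla HEK 293T cells, 16 h at 37 °C. Inhibition detected as reduced beta-lactamase activity via LiveBLAzer B/G FRET fluorescence after 2 h at room temperature.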

[5] = qHTS assay to identify small molecule agonists of the farnesoid-X-receptor (FXR) signaling pathway - cell viability counter screen (AID 743218); settings: FXR-bla HEK293T viability, CellTiter-Glo luminescence, 16 h; viability change, negative = cytotoxic: at 62.6 µM (top of the series) unless noted; note: potency is the fitted concentration of half-maximal effect; nearly all actives have a fitted effect of over 45% in size
Summary of the method: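 Cytotoxicity counter-screen run in parallel, same wells: FXR-UAS-bla HEK 293T cells dosed 16 h at 37 C, viability read by CellTiter-Glo luminescence after 30 min at room temperature.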

[6] = molecular target: Bile acid receptor (Homo sapiens) (UniProt Q96RI1); test: qHTS assay to identify small molecule agonists of the farnesoid-X-receptor (FXR) signaling pathway (AID 743220; active = well fitted activation curve with a large enough effect in the signal ratio in the repeat runs, not every such curve was filed as active; inconclusive = weak or mixed curves, or effect the other way; the % refers to the signal ratio; note: potency is the fitted concentration of half-maximal effect; for activation: % is set by controls: 0 for no effect and ±100 for the full control effect); settings: HEK293T FXR-UAS-bla, beta-lactamase FRET ratio, 16 h; activation: at 62.6 µM (top of the series) unless noted
Summary of the method: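 Beta-lactamase reporter under UAS control in GeneBLAzer FXR HEK 293T cells (5000/well) measured with LiveBLAzer FRET substrate after 2 h at room temperature. Compound exposure lasted 16 h at 37C.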

[7] = qHTS assay to identify small molecule antagonists of the farnesoid-X-receptor (FXR) signaling pathway - cell viability counter screen (AID 743221; active = well fitted cell-killing curve with a large enough effect in the repeat runs, not every such curve was filed as active; inconclusive = weak or mixed curves, or effect the other way; inactive = no such curve, though single readings can be large or run the other way; note: nearly all actives have a fitted effect of over 50% in size; note: potency is the fitted concentration of half-maximal effect); settings: FXR-bla HEK293T viability, CellTiter-Glo luminescence, 16 h; activity change, negative = cytotoxicity: at 62.6 µM (top of the series) unless noted
Summary of the method: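 Cytotoxicity is taken from ATP luminescence (CellTiter-Glo, 30 min, room temperature) in FXR-bla HEK 293T cells previously incubated 16 h at 37 C with compound and chenodeoxycholic acid at 50 uM final.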

[8] = molecular target: Vitamin D3 receptor (Homo sapiens) (UniProt P11473); test: qHTS assay to identify small molecule agonists of the vitamin D receptor (VDR) signaling pathway (AID 743222; calls by dose curve; note: potency is the fitted concentration of half-maximal effect); settings: HEK293T VDR-UAS-bla, beta-lactamase FRET ratio, 16 h; activation: at 63.5 µM (top of the series) unless noted
Summary of the method: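 Quantitative HTS agonist-mode screen: compounds in DMSO were pin-transferred onto VDR-bla cells and incubated 16 h at 37C, 5% CO2. Reporter activity was detected with LiveBLAzer B/G FRET substrate after 2 h at room temperature.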

[9] = molecular target: Vitamin D3 receptor (Homo sapiens) (UniProt P11473); test: qHTS assay to identify small molecule antagonists of the vitamin D receptor (VDR) signaling pathway (AID 743223; active = well fitted inhibition curve with a large enough effect in the signal ratio in the repeat runs, not every such curve was filed as active; inconclusive = weak or mixed curves, or effect the other way; inactive = no such curve, though single readings can be large or run the other way; the % refers to the signal ratio; note: potency is the fitted concentration of half-maximal effect); settings: VDR-UAS-bla HEK293T, beta-lactamase FRET ratio, 16 h; activity change, negative = inhibition: at 61 µM (top of the series) unless noted
Summary of the method: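 Quantitative HTS in VDR-bla reporter cells stimulated with 1alpha,25-dihydroxyvitamin D3, 3 nM final. Compound exposure 16 h, 37C, 5% CO2. Read-out: beta-lactamase FRET substrate fluorescence, 2 h RT.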

[10] = qHTS assay to identify small molecule agonists of the vitamin D receptor (VDR) signaling pathway - cell viability counter screen (AID 743224); settings: VDR-bla HEK293T viability, CellTiter-Glo luminescence, 16 h; activity change, negative = cytotoxicity: at 62.6 µM (top of the series); note: nearly all actives have a fitted effect of over 50% in size; note: potency is the fitted concentration of half-maximal effect
Summary of the method: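 Viability is measured in the same wells as the VDR-bla reporter assay: after 16 h compound treatment and 2 h substrate loading, CellTiter-Glo is added and luminescence read 30 min later.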

[11] = qHTS assay for small molecule agonists of the antioxidant response element (ARE) signaling pathway - cell viability counter screen (AID 743203; calls by dose curve; note: potency is the fitted concentration of half-maximal effect; nearly all actives have a fitted effect of over 55% in size); settings: ARE-bla HepG2 viability, CellTiter-Glo luminescence, 16 h; viability change, negative = cytotoxic: at 73.3 µM (top of the series)
Summary of the method: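 Seeded at 2,000 cells/well, ARE-bla HepG2 cells were incubated 5 hrs before compound addition. After 16 hrs of treatment at 37C with 5% CO2, CellTiter-Glo reagent was added and luminescence read 30 min later.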

[12] = qHTS assay for small molecule activators of the heat shock response signaling pathway - cell viability counter screen (AID 743209); settings: HSE-bla HeLa viability, CellTiter-Glo luminescence, 5 h; activity change, negative = cytotoxicity: at 62.6 µM (top of the series) unless noted; note: potency is the fitted concentration of half-maximal effect; nearly all actives have a fitted effect of over 50% in size
Summary of the method: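 First, HSE-bla HeLa cells were seeded at 1500 cells/well and kept overnight at 37 C. Next, compounds were pinned in and incubated 5 h. After the FRET substrate step, CellTiter-Glo was added and luminescence read 30 min later.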

[13] = qHTS assay for small molecule activators of the heat shock response signaling pathway (AID 743210; active = well fitted activation curve with a large enough effect in the signal ratio in the repeat runs, with a control signal flat, not every such curve was filed as active; inconclusive = weak or mixed curves; the % refers to the signal ratio; note: potency is the fitted concentration of half-maximal effect); settings: HeLa HSE-bla reporter, beta-lactamase ratio, 5 h; activation: at 62.6 µM (top of the series) unless noted
Summary of the method: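 HSE-bla HeLa cells (beta-lactamase reporter under heat shock response elements) were exposed to compounds for 5 h at 37 C, then loaded with LiveBLAzer B/G FRET substrate for 2.5 h at room temperature before fluorescence reading.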

[14] = molecular target: Peroxisome proliferator-activated receptor delta (Homo sapiens) (UniProt Q03181); test: qHTS assay to identify small molecule antagonists of the peroxisome proliferator-activated receptor delta (PPARd) signaling pathway (AID 743215; active = well fitted inhibition curve with a large enough effect in the signal ratio in the repeat runs, not every such curve was filed as active; inconclusive = weak or mixed curves, or effect the other way; inactive = no such curve, though single readings can be large or run the other way; the % refers to the signal ratio;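 note: cells stimulated with agonist L165041 at 300 nM final during compound exposure; % is set by controls: 0 for no effect and ±100 for the full control effect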); settings: HEK293H PPARd-UAS-bla, beta-lactamase FRET ratio, antagonist, 17 h; ratio activity, negative = inhibition: at 62 µM (top of the series) unless noted
Summary of the method: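 Inhibition of L165041-driven (300 nM final) PPARd signaling is scored in HEK293H UAS-bla cells. Exposure lasts 17 h at 37 C; beta-lactamase activity is then read by FRET substrate fluorescence after 2 h at room temperature.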

[15] = molecular target: Peroxisome proliferator-activated receptor delta (Homo sapiens) (UniProt Q03181); test: qHTS assay to identify small molecule agonists of the peroxisome proliferator-activated receptor delta (PPARd) signaling pathway (AID 743212; calls by dose curve; note: potency is the fitted concentration of half-maximal effect); settings: HEK293H PPARd-UAS-bla, beta-lactamase FRET ratio, 17 h; activation: at 62.6 µM (top of the series) unless noted
Summary of the method: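 GeneBLAzer PPARd UAS-bla HEK293H cells (beta-lactamase reporter under UAS control), plated and rested 5 h at 37 C, then exposed to compounds in DMSO at 37 C; LiveBLAzer B/G FRET substrate added, 2 h room temperature, fluorescence read.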

[16] = qHTS assay to identify small molecule antagonists of the peroxisome proliferator-activated receptor delta (PPARd) signaling pathway - cell viability counter screen (AID 743213); settings: PPARd-bla HEK293H viability, CellTiter-Glo luminescence, 17 h; viability change, negative = cytotoxic: at 62 µM (top of the series) unless noted; note: potency is the fitted concentration of half-maximal effect; nearly all actives have a fitted effect of over 50% in size
Summary of the method: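 Same-well viability: cells pre-incubated 5 h, dosed with compound plus 300 nM L165041, kept 17 h at 37 C, FRET substrate 2 h RT, then CellTiter-Glo 30 min RT and luminescence.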

[17] = qHTS assay to identify small molecule agonists of the peroxisome proliferator-activated receptor delta (PPARd) signaling pathway - cell viability counter screen (AID 743211); settings: PPARd-bla HEK293H viability, CellTiter-Glo luminescence, 17 h; activity change, negative = cytotoxicity: at 62.6 µM (top of the series) unless noted; note: potency is the fitted concentration of half-maximal effect; nearly all actives have a fitted effect of over 55% in size
Summary of the method: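 Tox21 library compounds, delivered in DMSO, were incubated 17 h with PPARd-bla HEK293H cells; cytotoxicity was taken from CellTiter-Glo luminescence read 30 min after reagent addition.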
Tags give direction and shape of the fitted curve or compound fluorescence and quenching.

UniProt P37231, sequence (P37231 whole entry, looked up): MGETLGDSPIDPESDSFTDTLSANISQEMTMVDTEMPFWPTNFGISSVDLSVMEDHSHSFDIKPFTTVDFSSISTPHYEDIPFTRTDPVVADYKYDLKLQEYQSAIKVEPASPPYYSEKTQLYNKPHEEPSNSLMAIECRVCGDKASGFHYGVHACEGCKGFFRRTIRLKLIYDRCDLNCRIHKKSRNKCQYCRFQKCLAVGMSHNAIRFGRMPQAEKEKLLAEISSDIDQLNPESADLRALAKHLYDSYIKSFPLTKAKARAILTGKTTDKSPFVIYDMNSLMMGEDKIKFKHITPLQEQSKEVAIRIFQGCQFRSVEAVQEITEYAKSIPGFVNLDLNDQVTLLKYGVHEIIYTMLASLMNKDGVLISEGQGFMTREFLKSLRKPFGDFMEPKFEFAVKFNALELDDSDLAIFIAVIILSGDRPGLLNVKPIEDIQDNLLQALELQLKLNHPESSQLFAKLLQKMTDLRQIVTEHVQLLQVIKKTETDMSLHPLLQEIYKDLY
UniProt Q96RI1, sequence (Q96RI1 whole entry, looked up): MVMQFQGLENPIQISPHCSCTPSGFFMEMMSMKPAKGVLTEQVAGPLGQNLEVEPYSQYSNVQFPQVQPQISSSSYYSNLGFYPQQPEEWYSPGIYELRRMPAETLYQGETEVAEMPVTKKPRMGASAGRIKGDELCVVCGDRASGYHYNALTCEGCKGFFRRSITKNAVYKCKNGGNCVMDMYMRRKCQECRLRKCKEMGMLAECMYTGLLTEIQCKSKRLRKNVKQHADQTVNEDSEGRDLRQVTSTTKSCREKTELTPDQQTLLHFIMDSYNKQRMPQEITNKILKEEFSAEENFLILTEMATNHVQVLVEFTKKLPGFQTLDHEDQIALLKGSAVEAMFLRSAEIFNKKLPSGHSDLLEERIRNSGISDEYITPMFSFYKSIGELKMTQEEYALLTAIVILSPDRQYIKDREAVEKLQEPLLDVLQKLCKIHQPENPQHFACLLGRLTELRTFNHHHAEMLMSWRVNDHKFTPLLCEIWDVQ
UniProt P11473, sequence (P11473 whole entry, looked up): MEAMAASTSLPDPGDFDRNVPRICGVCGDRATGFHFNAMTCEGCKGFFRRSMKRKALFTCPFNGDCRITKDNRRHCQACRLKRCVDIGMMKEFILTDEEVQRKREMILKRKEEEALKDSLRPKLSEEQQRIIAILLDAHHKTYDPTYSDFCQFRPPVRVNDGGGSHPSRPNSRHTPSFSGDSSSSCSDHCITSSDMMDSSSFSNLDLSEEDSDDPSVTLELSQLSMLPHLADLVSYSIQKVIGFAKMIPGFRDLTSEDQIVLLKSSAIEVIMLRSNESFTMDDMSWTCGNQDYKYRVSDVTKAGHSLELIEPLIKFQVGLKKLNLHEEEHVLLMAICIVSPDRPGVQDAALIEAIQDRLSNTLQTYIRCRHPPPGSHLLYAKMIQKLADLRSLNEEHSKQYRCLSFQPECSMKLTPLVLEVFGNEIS
UniProt Q03181, sequence (Q03181 whole entry, looked up): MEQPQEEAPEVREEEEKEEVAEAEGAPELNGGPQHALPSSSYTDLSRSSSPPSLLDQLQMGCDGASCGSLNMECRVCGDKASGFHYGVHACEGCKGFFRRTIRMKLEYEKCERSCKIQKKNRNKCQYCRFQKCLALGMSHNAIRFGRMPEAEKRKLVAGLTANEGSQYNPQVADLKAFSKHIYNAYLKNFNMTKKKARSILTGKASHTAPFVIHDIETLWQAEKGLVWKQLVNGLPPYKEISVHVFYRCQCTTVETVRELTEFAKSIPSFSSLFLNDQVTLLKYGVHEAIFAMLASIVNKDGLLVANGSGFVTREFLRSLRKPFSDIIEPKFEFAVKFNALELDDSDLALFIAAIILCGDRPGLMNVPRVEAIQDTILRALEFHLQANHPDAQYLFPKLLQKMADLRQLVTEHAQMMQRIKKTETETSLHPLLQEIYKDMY

Structure (SMILES): CC(C)(C)C1CCC(CC2=C(O)c3ccccc3C(=O)C2=O)CC1 (centres undefined)
- Potency [1]: inconclusive: 2.66 µM
- Potency [2]: inconclusive: 5.31 µM [cytotoxic, partial curve, poor fit]
- Potency [3]: active: 2.11 µM
- Potency [4]: inconclusive: 7.5 µM [inhibitor]
- Potency [5]: inconclusive: 2.66 µM [cytotoxic, full curve]
- activation [6]: inconclusive: 3.43%
- Potency [7]: inconclusive: 2.66 µM [falling, full curve]
- Potency [8]: inconclusive: 8.41 µM [rising, partial curve]
- Potency [9]: inconclusive: 6.74 µM [fluorescent, partial curve, poor fit]
- Potency [10]: inconclusive: 1.5 µM [cytotoxic, full curve, poor fit]

Structure (SMILES): O=C(CCS)OCC(COC(=O)CCS)(COC(=O)CCS)COC(=O)CCS
- ratio activity, negative = inhibition [1]: inconclusive: -21.7%
- Potency [2]: inconclusive: 0.0776 µM [cytotoxic, full curve, poor fit]
- Potency [3]: inconclusive: 61.1 µM [falling, partial curve, poor fit]
- Potency [11]: inconclusive: 24.3 µM [cytotoxic, partial curve, poor fit]
- Potency [12]: inconclusive: 38.9 µM [cytotoxic, partial curve, poor fit]
- Potency [13]: inconclusive: 61.6 µM
- ratio activity, negative = inhibition [14]: inconclusive: -1.4%
- Potency [4]: inactive

Structure (SMILES): N#CCCCC(C#N)CCC#N (centres undefined)
- ratio activity, negative = inhibition [1]: inconclusive: 6.5%
- Potency [2]: inconclusive: 0.871 µM [rising, full curve, poor fit]
- Potency [3]: inactive
- Potency [15]: inactive

Structure (SMILES): CCCC(CC)CCCCCCCN (centres undefined)
- ratio activity, negative = inhibition [1]: inconclusive: 5.53% [at 81.1 µM]
- Potency [2]: inconclusive: 56.3 µM [cytotoxic]
- Potency [11]: inconclusive: 70.3 µM [cytotoxic, single point]
- Potency [15]: inactive
- Potency [7]: inconclusive: 22.4 µM [falling, full curve]

Structure (SMILES): CCCCN(CCCC)CCC(O)c1cc2c(Cl)cc(Cl)cc2c2cc(C(F)(F)F)ccc12 (centres undefined)
- ratio activity, negative = inhibition [1]: inconclusive: 7.91%
- Potency [2]: inconclusive: 26.6 µM [cytotoxic, partial curve]
- activation [3]: inconclusive: 18.3%
- Potency [16]: inconclusive: 23.7 µM [cytotoxic]
- activity change, negative = inhibition [4]: inconclusive: -26.4%
- Potency [5]: active: 29.8 µM
- Potency [7]: inconclusive: 23.7 µM [falling, partial curve]
- Potency [10]: inactive

Structure (SMILES): CCc1cc(C(C)(C)C)c(O)c(C(C)(C)C)c1
- ratio activity, negative = inhibition [1]: inconclusive: 20.5% [at 81.1 µM]
- Potency [2]: inconclusive: 62.3 µM [cytotoxic, single point]
- Potency [12]: inconclusive: 55.5 µM [cytotoxic, single point]
- Potency [13]: inconclusive: 39.3 µM
- Potency [15]: inactive
- Potency [14]: inactive
- Potency [4]: inconclusive: 19.7 µM [inhibitor, full curve] and inactive
- Potency [5]: inconclusive: 1.11 µM [rising, full curve, poor fit]
- Potency [6]: inconclusive: 0.0617 µM [falling, full curve, poor fit]
- activity change, negative = inhibition [9]: inconclusive: -9.27% [at 78.8 µM]

Structure (SMILES): CC(CN(CCN(CC(C)OCCO)CC(C)OCCO)CC(C)OCCO)OCCO (centres undefined)
- Potency [1]: inconclusive: 66.7 µM [inhibitor, single point]
- Potency [2]: active: 37.5 µM
- Potency [3]: inconclusive: 52.5 µM [falling, partial curve]
- Potency [11]: active: 33.1 µM
- Potency [16]: inconclusive: 0.0106 µM [cytotoxic, full curve, poor fit]
- activity change, negative = cytotoxicity [7]: inconclusive: -30.6% [at 81.1 µM]
- Potency [8]: inactive

Structure (SMILES): C=CCCC=C
- Potency [1]: inactive
- Potency [2]: inactive
- Potency [13]: inconclusive: 63.4 µM [activator, single point]
- Potency [16]: inconclusive: 22.5 µM [rising, partial curve, poor fit]
- Potency [10]: inconclusive: 63.4 µM [cytotoxic, single point]

Structure (SMILES): CCCCCCC/C=C/C=O
- Potency [1]: inconclusive: 19.5 µM [rising, partial curve, poor fit]
- Potency [2]: inconclusive: 0.0389 µM [rising, full curve, poor fit]
- activation [3]: inconclusive: 21.2%
- Potency [17]: inconclusive: 21.9 µM [cytotoxic, full curve]
- Potency [7]: inactive
- Potency [8]: inactive

Structure (SMILES): CC(CC1c2ccccc2CCc2ccccc21)CN(C)C (centres undefined)
- ratio activity, negative = inhibition [1]: inconclusive: -29.6%
- Potency [2]: inconclusive: 0.0038 µM [cytotoxic, full curve, poor fit]
- Potency [3]: inconclusive: 26.6 µM
- Potency [17]: inconclusive: 23.7 µM [cytotoxic, partial curve]
- Potency [15]: inconclusive: 13.3 µM [rising, full curve, poor fit]
- Potency [16]: inconclusive: 29.8 µM [cytotoxic, partial curve]
